This is an account of results in the RNAGym collection of RNA variant scans (doi:10.7554/elife.90254).

B1: LINE1-mini (parent)
chain: GGCAGAGCUCAACACAGCGUGGCAAAGUGGCUGUGGCUAGACUGCC

Read counts are not given, so values of variants with three or more changes are uncertain.

In this series the parent is B1. The series can be described thus: self-cleavage, relative activity (ratio to wild type); higher = more cleavage; in vitro, sequencing; the parent is a self-cleaving ribozyme.
Consider GGCGGAGGUCAACACAGCGUGGCAAAGUGGUUGUGGCUAGACUGCC, for which the self-cleavage was found to be 0.04.

In the case of GGCGGAGCUCAACACAGCGUGGGAAAUUGGCUGUGGCUAGACUGUC, the self-cleavage was 0.12.

As for GGCGGAGCUCAACAAAGGGUGGCUAAGUGGCUGUGGCUAAACUGCC, the self-cleavage was found to be 0.04.

With GGCGGAGCUCACUACAUCGUGACAAAGUGGCUGUGGCUAGACUGCC, the self-cleavage came out at 0.02.

In the case of GGCGGAGCUCAACUCAGCGUGGCAUACUGGCUGUGGCUAGACUGCC, the self-cleavage stood at 0.04.

Regarding GGCGGAGCUCAACACAGCGUGGCAAAGUGGAUUUGGCUAGCCUGCC, the self-cleavage stood at 0.04.

For the variant GGCGGAGCUCAACACAGAGUGGCAAAGUGGCUGGGGCUAGAUUGCC, the self-cleavage came out at 0.02.

Take GGCGGAGCUAAACACAGCGUGGCAAAGUGGCUGUUGCUAGACUGCC: the self-cleavage worked out at 0.01.

Turning to GGCGGAGCUCAAGACAGCGUGGCAAAGUGACUGUGGCUAGACUGCC, the self-cleavage came out at 0.06.

GGCGGAGCUCAACACAGCGUGGCAUAGUGGCUGUGGCUAGACUGCU: the self-cleavage worked out at 1.52.

Regarding GGCGGAGCUCAAGACAGCGUGGCAAAGUGGCUGUGGCUAGAUUGCC, the self-cleavage is 0.05.

Turning to GGCGGUGCUCAACACAGCGUGGCAAAGUGGCUGGGGCUAGACUGCC, the self-cleavage was determined as 0.02.

Consider GGCGGAGCUCAACACGGCGUGGCAAAGUAGCUGUGCCUAGAAUGCC, for which the self-cleavage was 2.17.

For the variant GGCGGAGCUCAACACAGCGUGGCAUAGUGGCUGUGGCUAUACUGCC, the self-cleavage was 0.11.

As for GGCGGAGCUCAGCACAGCGUGGCAAAGCGUCUGUGGCUAGACUGCC, the self-cleavage is 0.08.

Regarding GGCGGAGCUCAACACAGUAUGGCAAAGUGGCUGUGGCUAGUCCGCC, the self-cleavage was determined as 0.33.

For GGCGGAGCUCAACACAGCGUGGUAAAGUGGCUAUAGCCAGACUGCC, the self-cleavage was determined as 0.07.

Consider GGCGGAGCUCAACACAGCGUGGCAAAGUGGGUGUGGCUAGACUACC, for which the self-cleavage was 0.04.

Consider GGCGGAGCUCAACAUAGCGUGGCAAAGUGGCUUUGUCUAGACUGCU, for which the self-cleavage is 0.02.

As to GGCGGAGCUCUACACAGCGUUGCAAAGUGGCUGUGGCUAGACUGCC, the self-cleavage worked out at 0.04.

For the variant GGCGGCGCCAAACACAGCGUGGCAAAGUGGCUGUGGCUAUACUGCC, the self-cleavage came to 0.21.

As for GGCGAAGCUCAACACAGCGUGGCAAAGUGUCUGUGGCUAGACUGCC, the self-cleavage was found to be 0.07.

As to GGCGAAGCUCAACACAGCGGGGCAAAGUGGCUGUGGCUAGACUGGC, the self-cleavage amounted to 0.02.

For the variant GGCGGAGCUCAUCGCAGCGUGGCAAACUGGCUGUGGCUAGACUGCC, the self-cleavage is 0.11.

As for GGCGGCGCUCACCACAGCAUGACAAAGUGGCUGUGGUUAGACUGCC, the self-cleavage is 0.

Take GGCGGAGCUCUCUACAGCGUGGCAAAGUGUCUGUGGCUAGACUGCC: the self-cleavage was determined as 0.02.

Consider GGCGGAGCUCAAGACAGCGUGGCAAAGUGGCUGUGGGUAGACUGCC, for which the self-cleavage is 0.16.

Consider GGCGGAGCUCAACGCAGCGUGGCAGAGUGGCUGUGGCUAGACUGCC, for which the self-cleavage turned out to be 0.75.

On to GGCGGAGCUUAACACAGCGUAGCAAAGUGGGUGUGACUAGACUGCA, for which the self-cleavage was found to be 0.06.

As to GGCGGAGCUUAACACAGCGUGGCAAAGUGGCUGUGUCUUGACUGCC, the self-cleavage is 0.03.

On to GGCGGAGCUCAACACAGCGUGGCAGAGUGGCUGUGGCUAGACUCCC, for which the self-cleavage was 0.01.

In the case of GGCGGAGCUCAAUACAGCGUGGCACAGUGGCUGUGGCUAGACUGCC, the self-cleavage is 0.63.

As for GGCGGAGCUCAAGACAGCGUGGCAAAGUGGCUGUGGCUAGACUCCC, the self-cleavage was determined as 0.01.

With GGCGGAGCUUAACACAGCGUGGCAAAGAGGCUGUGGCUAGACUGCC, the self-cleavage was 0.06.

For GGCGGAGCUCAACGCAGCGUGGCAAAGGGUCUGUGUAUAGACUGCC, the self-cleavage is 0.33.

Take GGCGGAGCUCAACCCAGCGUGGCAAAGUGGCUGUGGCUAGAUUGCC: the self-cleavage is 0.11.

Consider GGCGGUGCUCAACACAGCGUGACAAAGUGGCUGUGGCAAGACUGCC, for which the self-cleavage worked out at 0.04.

For the variant GGCGGAGCUCAACACAGCGUGGCGAAGUAGCUGUGGCUAGACUGCC, the self-cleavage was determined as 0.47.

As to GGCGGAGCUCAACACAGCGUGGCUAAGUGGCUGUGGCUAGACGGCC, the self-cleavage was 0.01.

Regarding GGCGGAGCUCAACACAGCGUGGCAAAGUGGCUGUGGAUAGACUAAC, the self-cleavage is 0.06.

For GGCGGAGCUAAUCACAGCUUUGCAUAGUGGCUUUGGCUAGACUGCC, the self-cleavage is 0.01.

For the variant GGCGGAGUUCAAGACAGUGUGGCAAAGUGGCUGUGGCUAGACUGCC, the self-cleavage amounted to 0.03.

Regarding GGCGGGGCUCAACACAGCGUGGCAAAGAGGCUGUGGCUAGACUGCC, the self-cleavage stood at 0.24.

GGCGGGGCUCAACACUGCGUGGCAAAUUGGCUAUGGCUAGACUGCC: the self-cleavage came out at 0.03.

In the case of GGCGGCUCUCAACACAGCGUGGCAAUGUGGCUGUGGCUACACUGCC, the self-cleavage was determined as 0.29.

On to GGCGGAGCUCAACACAGCGUGGCAAUGUGGCUUUGGCUAGACUGCC, for which the self-cleavage was 0.28.

Turning to GGCGGCGCUCAACACAGCGUGGCAAAGUCGCUGUGCCUAGACUGAA, the self-cleavage amounted to 0.31.

Take GGCGGAGCUGAACAGAGCGUGGCAAAGUGGCUGUGGCUAGACUGCC: the self-cleavage worked out at 0.01.

Turning to GGCGGAGCUCAACAUAGCGUGGCAAAGUGGCUGUGGCUAGGCUGCC, the self-cleavage came to 0.04.

For the variant GGCGGAGCUCAACACAGCGUGGCAAAGUGGCUGUGGCUGGCCUGCC, the self-cleavage worked out at 0.01.

On to GGCGGAGCUCGACACAGCGUGUCAAAGUGGCUGUGGCUAGACUGCC, for which the self-cleavage turned out to be 0.03.

Regarding GGCGGAGCUCAACAUAGCGUGGCAAGGUGGCUGUCGCUAGUCUGCU, the self-cleavage came out at 0.01.

Regarding GGCGGAGCUCAAUACAGCGUGGCAAAGUGGCUGUGGCUAGACCGCC, the self-cleavage was 0.09.

In the case of GGCGGAGCUCAACACAGGGUGGCAAAGUGGCUGUGGCUAGACUGUC, the self-cleavage was determined as 0.08.

In the case of GGCGGAGCUCAACGCAGCCUGGCAAAGUGGCUGUGGCUAGACUGCC, the self-cleavage was determined as 0.03.

On to GGCGGAGCUGAACACAGCGUCGCAAAGUGCCUGUGGCUAGACUGCC, for which the self-cleavage turned out to be 0.12.
